From PubChem BioAssay AID1030 (National Center for Advancing Translational Sciences (NCATS), 2008)
Hit rate of the full screen: of about 220,000 compounds, about 16,000 (7.3%) were called active. Inconclusive results, whose numbers are uncertain, are shown with a selection of clear calls. Calls follow the shape of the dose curve; as a rule, active = well fitted inhibition curve with a large enough effect (not every such curve was filed as active); inconclusive = small, poorly fitted or top-dose-only effect, or another doubt; inactive = no such curve, though single readings can be large or run the other way. No potency is given beside an inconclusive call; the fits are too rough.

Molecular target: Aldehyde dehydrogenase 1A1 (Homo sapiens) (UniProt P00352)
Assay: qHTS Assay for Inhibitors of Aldehyde Dehydrogenase 1 (ALDH1A1);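 as to activity, negative = inhibition: plate controls were no enzyme wells and a reference inhibitor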
Details: Purified ALDH1A1, NADH fluorescence, propionaldehyde substrate; series mostly up to 75.3 µM; activity, negative = inhibition: at the top concentration
Potency is read from the fitted curve at half-maximal effect; tags tell the direction and shape of the fitted curve.

Chain of UniProt P00352 (P00352 whole entry, looked up): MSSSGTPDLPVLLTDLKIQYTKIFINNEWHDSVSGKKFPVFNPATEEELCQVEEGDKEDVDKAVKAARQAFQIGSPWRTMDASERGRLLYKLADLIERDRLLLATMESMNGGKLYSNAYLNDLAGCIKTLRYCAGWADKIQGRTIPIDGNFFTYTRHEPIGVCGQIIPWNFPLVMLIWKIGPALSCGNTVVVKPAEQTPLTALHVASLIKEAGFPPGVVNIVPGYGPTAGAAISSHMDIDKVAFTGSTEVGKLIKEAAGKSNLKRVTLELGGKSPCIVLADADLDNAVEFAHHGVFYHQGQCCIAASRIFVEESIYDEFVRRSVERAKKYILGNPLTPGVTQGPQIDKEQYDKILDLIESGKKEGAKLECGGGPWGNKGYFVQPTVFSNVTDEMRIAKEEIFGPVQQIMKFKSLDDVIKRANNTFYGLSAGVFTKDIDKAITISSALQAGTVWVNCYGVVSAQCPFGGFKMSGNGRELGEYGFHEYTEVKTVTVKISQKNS

| Compound | Potency | activity, negative = inhibition |
| --- | --- | --- |
| CN(C(=O)COc1cc(=O)n(C)c2ccccc12)c1cccc(Cl)c1 | inconclusive [inhibitor, single point] | – |
| O=C(CCCC(=O)N(CC(=O)NC1CCCC1)C1CCCC1)Nc1ccccn1 | inconclusive [inhibitor, single point] | – |
| Cc1ccc([N+](=O)[O-])c(OCCCN2CCCCCC2)c1 | inconclusive [inhibitor, partial curve] | – |
| O=C(O)c1cc(-c2ccc(/C=N/Nc3ccc(Cl)cc3)o2)ccc1Cl | inconclusive [inhibitor, single point] | – |
| Cn1c(CCC(=O)Nc2ccccc2F)nnc1SCC(=O)Nc1ccccc1Cl | – | inactive: 3.73% |
| CCOC(=O)N1CCN(C(=O)c2cnn3ccccc23)CC1 | inconclusive [inhibitor, single point] | – |
| CCOC(=O)N1CCN(C(=O)CSCC(=O)Nc2nc(-c3ccc(-c4ccccc4)cc3)cs2)CC1 | inconclusive [inhibitor, single point] | – |
| COc1cccc2cc(-c3ccnc(=S)[nH]3)oc12 | inconclusive [inhibitor, full curve] | – |
| COc1cc2c(cc1NC(=O)CSc1nnc(Cc3cccs3)n1Cc1ccco1)oc1ccccc12 | active: 5.01 µM | – |
| COc1ccc2c(c1)-c1nc(/N=C/c3c(O)ccc4ccccc34)sc1CC2 | active: 17.8 µM | – |
| O=C(CSCc1ccccc1Cl)NN=C1CCCCCC1 | active: 22.4 µM | – |
| O=[N+]([O-])c1ccc(/C=N/NC2=NS(=O)(=O)c3ccccc32)cc1 | – | inactive: -10.5% |
| Cc1ccc2c(N)c(C)ccc2c1 | inconclusive [inhibitor, partial curve] | – |
| CCc1cc2c(=O)n(Cc3ccco3)c(SCc3c(C)noc3C)nc2s1 | active: 22.4 µM | – |
| Cc1cc(C)cc(Nc2ccc([N+](=O)[O-])nc2[N+](=O)[O-])c1 | inconclusive [inhibitor, single point] | – |
| O=C(NC1CCCCC1)NC1(C(=O)NCCCN2CCOCC2)CCCCC1 | – | inactive: 10.8% |
| CC(C)(C)NC(=O)NC(=O)CN1CCN(c2ccc(O)cc2)CC1 | active: 22.4 µM | – |
| CCn1c(C2CCN(S(=O)(=O)c3ccc(OC)cc3)CC2)n[nH]c1=S | inconclusive [inhibitor, partial curve] | – |
| CCOC(=O)c1c(NC(=O)CCC(=O)N2CCOCC2)sc2c1CC(C)(C)OC2 | inconclusive [inhibitor, single point] | – |
| COc1cc2c(cc1NC(=O)CSCC(=O)O)oc1ccccc12 | inconclusive [inhibitor, single point] | – |
